From the supplement of paper PMC4967469

Assays:
AICAR = compound: NC(=O)c1ncn([C@@H]2O[C@H](CO)[C@@H](O)[C@H]2O)c1N [AICAR]; assay: Viability of human cancer cell lines after 72 h of drug (GDSC screen); conditions: top dose 2000 µM; top dose inferred
Experimental: (§1)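 Human cancer cell lines in 384-well plates, medium with 10% serum, drug for 72 h over a 256-fold dose range (nine 2-fold or five 4-fold steps up to the top dose). Adherent lines were fixed and stained with the nucleic acid dye Syto60, suspension lines read with resazurin; signal relative to control wells, capped at 0 and 100%. One two-parameter sigmoid per drug and line, fitted in a mixed model over all curves with the slope shared within a line.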

AKT inhibitor VIII = compound: O=c1[nH]c2ccccc2n1C1CCN(Cc2ccc(-c3[nH]c4cc5ncnc5cc4nc3-c3ccccc3)cc2)CC1 [AKT inhibitor VIII]; assay: as above; conditions: top dose inferred
Experimental: as §1

[1] = top dose 2.56 µM, screen: GDSC drug entry 171
[2] = top dose 10.24 µM, screen: GDSC drug entry 228

| Cell Line | AUC (AICAR) | IC50 (AICAR) [µM] | AUC (AKT inhibitor VIII; [1]) | IC50 (AKT inhibitor VIII; [1]) [µM] | AUC (AKT inhibitor VIII; [2]) | IC50 (AKT inhibitor VIII; [2]) [µM] |
| --- | --- | --- | --- | --- | --- | --- |
| BICR22 (head and neck, adherent) | 0.708 | 532 | 0.954 | > 2.56 | 0.963 | > 10.2 |
| BICR78 (head and neck, adherent) | 0.783 | 984 | 0.806 | 1.55 | 0.964 | > 10.2 |
| BL-41 (Burkitt lymphoma, suspension) | 0.695 | 378 | 0.978 | > 2.56 | 0.672 | 1.69 |
| BT-20 (breast, adherent) | 0.832 | 1720 | 0.876 | > 2.56 | 0.842 | 9.84 |
| BT-474 (breast, adherent) | 0.955 | > 2000 | 0.944 | > 2.56 | 0.559 | 0.943 |
| BT-483 (breast, adherent) | 0.964 | > 2000 | 0.947 | > 2.56 | 0.816 | > 10.2 |
| Becker (glioma, adherent) | 0.962 | > 2000 | 0.871 | > 2.56 | 0.944 | > 10.2 |
| BxPC-3 (pancreas, adherent) | 0.824 | 1380 | 0.79 | 1.3 | 0.949 | > 10.2 |
| C3A (liver, adherent) | 0.928 | > 2000 | 0.875 | > 2.56 | 0.988 | > 10.2 |
| C32 (melanoma, adherent) | 0.925 | > 2000 | 0.985 | > 2.56 | 0.987 | > 10.2 |
| C-4-I (cervix, adherent) | 0.912 | > 2000 | 0.92 | > 2.56 | 0.978 | > 10.2 |
| C-33-A (cervix, adherent) | 0.969 | > 2000 | 0.933 | > 2.56 | 0.887 | > 10.2 |
| CA46 (Burkitt lymphoma, suspension) | 0.877 | > 2000 | 0.965 | > 2.56 | 0.629 | 1.5 |
| CADO-ES1 (Ewing sarcoma, suspension) | 0.94 | > 2000 |  |  | 0.805 | 5.3 |
| CAKI-1 (kidney, adherent) | 0.853 | > 2000 | 0.96 | > 2.56 | 0.92 | > 10.2 |
| CAL-12T (non-small cell lung carcinoma, adherent) | 0.762 | 797 | 0.953 | > 2.56 | 0.732 | 3.2 |
| CAL-27 (head and neck, adherent) | 0.76 | 715 | 0.94 | > 2.56 | 0.94 | > 10.2 |
| CAL-29 (bladder, adherent) | 0.882 | > 2000 | 0.887 | > 2.56 | 0.82 | 6.47 |
| CAL-33 (head and neck, adherent) | 0.768 | 752 | 0.887 | > 2.56 | 0.797 | 4.85 |
| CAL-39 (cervix, adherent) | 0.872 | > 2000 | 0.969 | > 2.56 | 0.892 | > 10.2 |
| CAL-51 (breast, adherent) | 0.933 | > 2000 | 0.906 | > 2.56 | 0.956 | > 10.2 |
| CAL-62 (thyroid, adherent) | 0.936 | > 2000 | 0.979 | > 2.56 | 0.977 | > 10.2 |
| CAL-72 (osteosarcoma, adherent) | 0.861 | > 2000 | 0.961 | > 2.56 | 0.982 | > 10.2 |
| CAL-78 (chondrosarcoma, adherent) | 0.913 | > 2000 | 0.971 | > 2.56 | 0.986 | > 10.2 |
| CAL-85-1 (breast, adherent) | 0.93 | > 2000 | 0.887 | > 2.56 | 0.852 | > 10.2 |
| CAL-120 (breast, adherent) | 0.737 | 734 | 0.966 | > 2.56 | 0.89 | > 10.2 |

| Cell Line | AUC (AICAR) | IC50 (AICAR) [µM] | AUC (AKT inhibitor VIII; [1]) | IC50 (AKT inhibitor VIII; [1]) [µM] | AUC (AKT inhibitor VIII; [2]) | IC50 (AKT inhibitor VIII; [2]) [µM] |
| --- | --- | --- | --- | --- | --- | --- |
| CAPAN-1 (pancreas, adherent) | 0.938 | > 2000 | 0.966 | > 2.56 | 0.928 | > 10.2 |
| CCF-STTG1 (glioma, adherent) | 0.894 | > 2000 | 0.88 | > 2.56 | 0.98 | > 10.2 |
| CCK-81 (large intestine, adherent) | 0.952 | > 2000 | 0.99 | > 2.56 | 0.763 | 3.49 |
| CCRF-CEM (lymphoblastic leukaemia, suspension) | 0.644 | 291 | 0.91 | > 2.56 | 0.497 | 0.631 |
| CESS (acute myeloid leukaemia, suspension) | 0.902 | 1960 | 0.875 | 1.92 | 0.339 | 0.246 |
| CGTH-W-1 (thyroid, adherent) | 0.9 | > 2000 | 0.937 | > 2.56 | 0.927 | > 10.2 |
| CHL-1 (melanoma, adherent) | 0.87 | 1680 | 0.958 | > 2.56 | 0.915 | > 10.2 |
| CHP-126 (neuroblastoma, suspension) | 0.603 | 242 | 0.98 | > 2.56 |  |  |
| CHP-212 (neuroblastoma, adherent) | 0.945 | > 2000 | 0.873 | 2.14 | 0.731 | 2.73 |
| CHSA0011 (chondrosarcoma, adherent) | 0.957 | > 2000 | 0.974 | > 2.56 | 0.924 | > 10.2 |
| CHSA0108 (chondrosarcoma, adherent) | 0.926 | > 2000 | 0.953 | > 2.56 | 0.971 | > 10.2 |
| CHSA8926 (chondrosarcoma, adherent) | 0.943 | > 2000 | 0.978 | > 2.56 | 0.954 | > 10.2 |
| CL-11 (large intestine, adherent) | 0.987 | > 2000 | 0.987 | > 2.56 | 0.987 | > 10.2 |
| COLO-205 (large intestine, suspension) | 0.918 | > 2000 | 0.848 | 1.86 | 0.891 | > 10.2 |
| COLO-320-HSR (large intestine, suspension) | 0.633 | 276 | 0.99 | > 2.56 | 0.814 | 4.68 |
| COLO-668 (small cell lung carcinoma, adherent) | 0.956 | > 2000 | 0.948 | > 2.56 | 0.713 | 2.56 |
| COLO-678 (large intestine, semi-adherent) | 0.881 | > 2000 | 0.966 | > 2.56 | 0.958 | > 10.2 |
| COLO-680N (oesophagus, adherent) | 0.755 | 794 | 0.92 | > 2.56 | 0.965 | > 10.2 |
| COLO-684 (endometrium, suspension) | 0.761 | 795 | 0.932 | > 2.56 | 0.577 | 1.06 |
| COLO-783 (melanoma, adherent) | 0.988 | > 2000 | 0.99 | > 2.56 | 0.963 | > 10.2 |
| COLO-800 (melanoma, adherent) | 0.928 | > 2000 | 0.985 | > 2.56 | 0.878 | 9.89 |
| COLO-824 (breast, adherent) | 0.891 | > 2000 | 0.977 | > 2.56 | 0.856 | 8.49 |
| COR-L23 (large cell lung carcinoma, adherent) | 0.777 | 781 | 0.985 | > 2.56 | 0.893 | > 10.2 |
| COR-L95 (small cell lung carcinoma, adherent) | 0.954 | > 2000 | 0.968 | > 2.56 | 0.884 | > 10.2 |
| COR-L321 (lung, suspension) | 0.952 | > 2000 |  |  | 0.872 | 9.72 |
| CP50-MEL-B (melanoma, adherent) | 0.966 | > 2000 | 0.964 | > 2.56 | 0.979 | > 10.2 |

| Cell Line | AUC (AICAR) | IC50 (AICAR) [µM] | AUC (AKT inhibitor VIII; [1]) | IC50 (AKT inhibitor VIII; [1]) [µM] | AUC (AKT inhibitor VIII; [2]) | IC50 (AKT inhibitor VIII; [2]) [µM] |
| --- | --- | --- | --- | --- | --- | --- |
| CP66-MEL (melanoma, adherent) | 0.951 | > 2000 | 0.981 | > 2.56 | 0.915 | > 10.2 |
| CPC-N (small cell lung carcinoma, suspension) | 0.684 | 432 | 0.967 | > 2.56 | 0.932 | > 10.2 |
| CS1 (bone, adherent) | 0.808 | 1190 | 0.926 | > 2.56 | 0.852 | 9.43 |
| CTB-1 (B-cell lymphoma, suspension) | 0.739 | 792 | 0.915 | > 2.56 | 0.828 | 9.73 |
| CW-2 (large intestine, adherent) | 0.924 | > 2000 | 0.989 | > 2.56 | 0.842 | 8.02 |
| Ca9-22 (head and neck, adherent) | 0.835 | 1180 | 0.906 | > 2.56 | 0.97 | > 10.2 |
| Ca-Ski (cervix, adherent) | 0.781 | 938 | 0.865 | > 2.56 | 0.572 | 1.03 |
| CaR-1 (large intestine, adherent) | 0.865 | > 2000 | 0.94 | > 2.56 | 0.948 | > 10.2 |
| Calu-3 (lung adenocarcinoma, adherent) | 0.863 | > 2000 | 0.844 | > 2.56 | 0.831 | 8.93 |
| Calu-6 (lung adenocarcinoma, adherent) | 0.729 | 624 | 0.959 | > 2.56 | 0.971 | > 10.2 |
| Caov-4 (ovary, adherent) | 0.935 | > 2000 | 0.97 | > 2.56 | 0.848 | > 10.2 |
| D-247MG (glioma, adherent) | 0.932 | > 2000 | 0.98 | > 2.56 | 0.972 | > 10.2 |
| D-263MG (glioma, adherent) | 0.949 | > 2000 | 0.978 | > 2.56 | 0.983 | > 10.2 |
| D-336MG (glioma, adherent) | 0.981 | > 2000 | 0.96 | > 2.56 | 0.849 | > 10.2 |
| D-392MG (glioma, adherent) | 0.931 | > 2000 | 0.924 | > 2.56 | 0.906 | > 10.2 |
| D-423MG (glioma, adherent) | 0.883 | > 2000 |  |  | 0.921 | > 10.2 |
| D-502MG (glioma, adherent) | 0.946 | > 2000 | 0.977 | > 2.56 | 0.941 | > 10.2 |
| D-542MG (glioma, adherent) | 0.969 | > 2000 | 0.947 | > 2.56 | 0.975 | > 10.2 |
| D-566MG (glioma, adherent) | 0.898 | > 2000 |  |  | 0.769 | 3.81 |
| DAN-G (pancreas, adherent) | 0.85 | 1230 | 0.98 | > 2.56 | 0.918 | > 10.2 |
| DB (B-cell lymphoma, suspension) | 0.552 | 176 | 0.983 | > 2.56 | 0.879 | > 10.2 |
| DBTRG-05MG (glioma, adherent) | 0.869 | > 2000 | 0.968 | > 2.56 | 0.967 | > 10.2 |
| DEL (lymphoid neoplasm, suspension) | 0.905 | 1680 | 0.98 | > 2.56 | 0.864 | 5.99 |
| DG-75 (Burkitt lymphoma, suspension) | 0.812 | 1080 | 0.987 | > 2.56 | 0.853 | 8.16 |
| DJM-1 (skin, adherent) | 0.837 | 1320 | 0.972 | > 2.56 | 0.983 | > 10.2 |
| DK-MG (glioma, adherent) | 0.965 | > 2000 | 0.868 | > 2.56 | 0.832 | > 10.2 |

Lines with a small IC50 respond at low doses; a limit (>, <) means that the fit lies beyond the doses tested. AUC, from the same fit, is the share of area under the viability curve across the 256-fold dose range: 1 means no effect, lower means more sensitive. Where the top dose is marked as inferred, it comes from the curve model; the source does not state it. For some assays here: Drugs with an entry number were screened twice under separate entries, and the two screens often disagree.
